# The supplement of paper PMC12217912
# This is one part of the list. The full chains were built here from the parent and the listed change. Inactive controls read about 0.05.
# B1: TEV protease; numbered along this chain (parent)
# chain: MGESLFKGPRDYNPISSSICHLTNESDGHTTSLYGIGFGPFIITNKHLFRRNNGTLVVQSLHGVFKVKDTTTLQQHLVDGRDMIIIRMPKDFPPFPQKLKFREPQREERICLVTTNFQTKSMSSMVSDTSCTFPSGDGIFWKHWIQTKDGQCGSPLVSTRDGFIVGIHSASNFTNTNNYFTSVPKNFMELLTNQEAQQWVSGWRLNADSVLWGGHKVFMVKPEEPFQPVKEATQL
# Variants of: B1
# Test: raw area under fraction-flipped curve 0-4 h after induction (AUC4h, not background-subtracted), DNA-recorder readout of cleavage of the substrate (dimensionless); higher = more cleavage of the substrate by the protease variant
# Conditions: temperature: 34 °C; time window: 0-4 h after rhamnose induction
# Protocol: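 In vivo DNA recorder in E. coli TOP10(DE3) ΔrhaA at 34 °C. Each TEVp single-site mutant (parent TEVp 0) is paired with a single-site variant of the 7-mer TEVs (canonical ENLYFQ|S). The substrate sits between flexible linkers in a Bxb1-sfGFP-TEVs-SsrA fusion, so cleavage stabilises Bxb1 and speeds flipping of a recombination array, read by NGS. The value is the raw area under the fraction-flipped curve over 0-4 h after rhamnose induction (AUC4h), with ≥20 reads per time point. It is not background-subtracted; inactive controls average about 0.047.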
# 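Also: Bxb1 expression induced with 0.2% (w/v) L-rhamnose at OD600 near 0.5, cultures sampled hourly, flipped fraction per protease–substrate barcode pair counted by paired-end Illumina sequencing.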
variant,measurement,value
MGESLFKGPRDYNPISSSICHLTNESDGHTTSLYGIGFGPFIITNKHLFRRNNGTLVVQSLHGVFFVKDTTTLQQHLVDGRDMIIIRMPKDFPPFPQKLKFREPQREERICLVTTNFQTKSMSSMVSDTSCTFPSGDGIFWKHWIQTKDGQCGSPLVSTRDGFIVGIHSASNFTNTNNYFTSVPKNFMELLTNQEAQQWVSGWRLNADSVLWGGHKVFMVKPEEPFQPVKEATQL [K66F],area with substrate ENAYFQS,0.0612
same,area with substrate ENDYFQS,0.0565
same,area with substrate ENEYFQS,0.057
same,area with substrate ENFYFQS,0.0606
same,area with substrate ENGYFQS,0.0687
same,area with substrate ENHYFQS,0.063
same,area with substrate ENIYFQS,0.113
same,area with substrate ENKYFQS,0.0419
same,area with substrate ENMYFQS,0.0645
same,area with substrate ENNYFQS,0.0683
same,area with substrate ENQYFQS,0.0639
same,area with substrate ENSYFQS,0.0752
same,area with substrate ENTYFQS,0.0696
same,area with substrate ENVYFQS,0.0814
MGESLFKGPRDYNPISSSICHLTNESDGHTTSLYGIGFGPFIITNKHLFRRNNGTLVVQSLHGVFRVKDTTTLQQHLVDGRDMIIIRMPKDFPPFPQKLKFREPQREERICLVTTNFQTKSMSSMVSDTSCTFPSGDGIFWKHWIQTKDGQCGSPLVSTRDGFIVGIHSASNFTNTNNYFTSVPKNFMELLTNQEAQQWVSGWRLNADSVLWGGHKVFMVKPEEPFQPVKEATQL [K66R],area with substrate ENAYFQS,0.0577
same,area with substrate ENDYFQS,0.0719
same,area with substrate ENEYFQS,0.046
same,area with substrate ENFYFQS,0.0652
same,area with substrate ENHYFQS,0.0918
same,area with substrate ENIYFQS,0.102
same,area with substrate ENNYFQS,0.0691
same,area with substrate ENPYFQS,0.0383
same,area with substrate ENQYFQS,0.0749
same,area with substrate ENTYFQS,0.0704
same,area with substrate ENVYFQS,0.0819
same,area with substrate ENYYFQS,0.0872
MGESLFKGPRDYNPISSSICHLTNESDGHTTSLYGIGFGPFIITNKHLFRRNNGTLVVQSLHGVFKRKDTTTLQQHLVDGRDMIIIRMPKDFPPFPQKLKFREPQREERICLVTTNFQTKSMSSMVSDTSCTFPSGDGIFWKHWIQTKDGQCGSPLVSTRDGFIVGIHSASNFTNTNNYFTSVPKNFMELLTNQEAQQWVSGWRLNADSVLWGGHKVFMVKPEEPFQPVKEATQL [V67R],area with substrate ENAYFQS,0.055
same,area with substrate ENDYFQS,0.0531
same,area with substrate ENEYFQS,0.0523
same,area with substrate ENFYFQS,0.0571
same,area with substrate ENHYFQS,0.0521
same,area with substrate ENMYFQS,0.0493
same,area with substrate ENNYFQS,0.0401
same,area with substrate ENPYFQS,0.0498
same,area with substrate ENQYFQS,0.0547
same,area with substrate ENSYFQS,0.0554
same,area with substrate ENTYFQS,0.0722
same,area with substrate ENVYFQS,0.0537
same,area with substrate ENYYFQS,0.0513
MGESLFKGPRDYNPISSSICHLTNESDGHTTSLYGIGFGPFIITNKHLFRRNNGTLVVQSLHGVFKVKHTTTLQQHLVDGRDMIIIRMPKDFPPFPQKLKFREPQREERICLVTTNFQTKSMSSMVSDTSCTFPSGDGIFWKHWIQTKDGQCGSPLVSTRDGFIVGIHSASNFTNTNNYFTSVPKNFMELLTNQEAQQWVSGWRLNADSVLWGGHKVFMVKPEEPFQPVKEATQL [D69H],area with substrate ENAYFQS,0.0254
same,area with substrate ENCYFQS,0.0643
same,area with substrate ENDYFQS,0.0608
same,area with substrate ENEYFQS,0.0598
same,area with substrate ENFYFQS,0.063
same,area with substrate ENGYFQS,0.0569
same,area with substrate ENHYFQS,0.0663
same,area with substrate ENMYFQS,0.0686
same,area with substrate ENNYFQS,0.0519
same,area with substrate ENPYFQS,0.0686
same,area with substrate ENQYFQS,0.0524
same,area with substrate ENRYFQS,0.0625
same,area with substrate ENSYFQS,0.0643
same,area with substrate ENTYFQS,0.0589
same,area with substrate ENVYFQS,0.0706
same,area with substrate ENWYFQS,0.0684
MGESLFKGPRDYNPISSSICHLTNESDGHTTSLYGIGFGPFIITNKHLFRRNNGTLVVQSLHGVFKVKQTTTLQQHLVDGRDMIIIRMPKDFPPFPQKLKFREPQREERICLVTTNFQTKSMSSMVSDTSCTFPSGDGIFWKHWIQTKDGQCGSPLVSTRDGFIVGIHSASNFTNTNNYFTSVPKNFMELLTNQEAQQWVSGWRLNADSVLWGGHKVFMVKPEEPFQPVKEATQL [D69Q],area with substrate ENAYFQS,0.0542
same,area with substrate ENCYFQS,0.0666
same,area with substrate ENDYFQS,0.0513
same,area with substrate ENEYFQS,0.0708
same,area with substrate ENFYFQS,0.0598
same,area with substrate ENGYFQS,0.0665
same,area with substrate ENHYFQS,0.0614
same,area with substrate ENIYFQS,0.0964
same,area with substrate ENKYFQS,0.0677
same,area with substrate ENNYFQS,0.0547
same,area with substrate ENPYFQS,0.0612
same,area with substrate ENQYFQS,0.0602
same,area with substrate ENRYFQS,0.0438
same,area with substrate ENSYFQS,0.0763
same,area with substrate ENTYFQS,0.068
same,area with substrate ENWYFQS,0.0534
same,area with substrate ENYYFQS,0.0596
MGESLFKGPRDYNPISSSICHLTNESDGHTTSLYGIGFGPFIITNKHLFRRNNGTLVVQSLHGVFKVKDTATLQQHLVDGRDMIIIRMPKDFPPFPQKLKFREPQREERICLVTTNFQTKSMSSMVSDTSCTFPSGDGIFWKHWIQTKDGQCGSPLVSTRDGFIVGIHSASNFTNTNNYFTSVPKNFMELLTNQEAQQWVSGWRLNADSVLWGGHKVFMVKPEEPFQPVKEATQL [T71A],area with substrate ENAYFQS,0.0619
same,area with substrate ENCYFQS,0.0419
same,area with substrate ENEYFQS,0.0638
same,area with substrate ENFYFQS,0.0529
same,area with substrate ENGYFQS,0.0549
same,area with substrate ENIYFQS,0.121
same,area with substrate ENKYFQS,0.066
same,area with substrate ENMYFQS,0.179
same,area with substrate ENPYFQS,0.0693
same,area with substrate ENQYFQS,0.0593
same,area with substrate ENSYFQS,0.0681
same,area with substrate ENTYFQS,0.0587
same,area with substrate ENVYFQS,0.0346
same,area with substrate ENWYFQS,0.0679
MGESLFKGPRDYNPISSSICHLTNESDGHTTSLYGIGFGPFIITNKHLFRRNNGTLVVQSLHGVFKVKDTFTLQQHLVDGRDMIIIRMPKDFPPFPQKLKFREPQREERICLVTTNFQTKSMSSMVSDTSCTFPSGDGIFWKHWIQTKDGQCGSPLVSTRDGFIVGIHSASNFTNTNNYFTSVPKNFMELLTNQEAQQWVSGWRLNADSVLWGGHKVFMVKPEEPFQPVKEATQL [T71F],area with substrate ENAYFQS,0.0587
same,area with substrate ENCYFQS,0.0678
same,area with substrate ENDYFQS,0.0647
same,area with substrate ENEYFQS,0.0627
same,area with substrate ENGYFQS,0.0681
same,area with substrate ENHYFQS,0.0569
same,area with substrate ENIYFQS,0.0606
same,area with substrate ENKYFQS,0.0636
same,area with substrate ENMYFQS,0.0625
same,area with substrate ENNYFQS,0.0669
same,area with substrate ENQYFQS,0.0549
same,area with substrate ENRYFQS,0.0693
same,area with substrate ENSYFQS,0.0724
same,area with substrate ENTYFQS,0.057
same,area with substrate ENVYFQS,0.0689
same,area with substrate ENYYFQS,0.0569
MGESLFKGPRDYNPISSSICHLTNESDGHTTSLYGIGFGPFIITNKHLFRRNNGTLVVQSLHGVFKVKDTTPLQQHLVDGRDMIIIRMPKDFPPFPQKLKFREPQREERICLVTTNFQTKSMSSMVSDTSCTFPSGDGIFWKHWIQTKDGQCGSPLVSTRDGFIVGIHSASNFTNTNNYFTSVPKNFMELLTNQEAQQWVSGWRLNADSVLWGGHKVFMVKPEEPFQPVKEATQL [T72P],area with substrate ENAYFQS,0.0577
same,area with substrate ENCYFQS,0.0671
same,area with substrate ENDYFQS,0.0701
same,area with substrate ENEYFQS,0.0571
same,area with substrate ENFYFQS,0.0582
same,area with substrate ENGYFQS,0.0671
same,area with substrate ENHYFQS,0.0731
same,area with substrate ENKYFQS,0.066
same,area with substrate ENMYFQS,0.0709
same,area with substrate ENNYFQS,0.0599
same,area with substrate ENPYFQS,0.0553
same,area with substrate ENQYFQS,0.0579
same,area with substrate ENSYFQS,0.0765
same,area with substrate ENVYFQS,0.0512
same,area with substrate ENYYFQS,0.0684
MGESLFKGPRDYNPISSSICHLTNESDGHTTSLYGIGFGPFIITNKHLFRRNNGTLVVQSLHGVFKVKDTTTGQQHLVDGRDMIIIRMPKDFPPFPQKLKFREPQREERICLVTTNFQTKSMSSMVSDTSCTFPSGDGIFWKHWIQTKDGQCGSPLVSTRDGFIVGIHSASNFTNTNNYFTSVPKNFMELLTNQEAQQWVSGWRLNADSVLWGGHKVFMVKPEEPFQPVKEATQL [L73G],area with substrate ENAYFQS,0.0369
same,area with substrate ENCYFQS,0.0475
same,area with substrate ENDYFQS,0.0604
same,area with substrate ENFYFQS,0.0511
same,area with substrate ENKYFQS,0.0415
same,area with substrate ENNYFQS,0.0524
same,area with substrate ENQYFQS,0.0602
same,area with substrate ENRYFQS,0.0459
same,area with substrate ENSYFQS,0.0501
same,area with substrate ENTYFQS,0.0557
same,area with substrate ENVYFQS,0.0524
same,area with substrate ENWYFQS,0
same,area with substrate ENYYFQS,0.0301
